The list shows a part of the results. These are further read-outs of the screen, such as a control signal, another cell line or another target. No call is given for them.
Columns and labels:
Experiment in all cases: Primary Screen for Target Class Profiling of Small Molecule Inhibitors of Methyltransferases
[1] = biological target: Glycine N-methyltransferase (Homo sapiens) (UniProt Q14749); conditions: purified enzyme, MTase-Glo SAH luminescence; measured here: GNMT inhibition; at 40 µM; stronger effect = lower value
Method in brief: (§1)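 Each enzyme was assayed with SAM and its substrate. SAH formation detected by MTase-Glo luminescence; single-point 40 uM screen[…].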

[2] = biological target: Guanidinoacetate N-methyltransferase (Homo sapiens) (UniProt Q14353); conditions: purified enzyme, MTase-Glo SAH luminescence; measured here: GAMT inhibition; at 40 µM; stronger effect = lower value
Method in brief: as §1

[3] = biological target: Histamine N-methyltransferase (Homo sapiens) (UniProt P50135); conditions: purified enzyme, MTase-Glo SAH luminescence; measured here: HNMT inhibition; at 40 µM; stronger effect = lower value
Method in brief: as §1

[4] = biological target: Nicotinamide N-methyltransferase (Homo sapiens) (UniProt P40261); conditions: purified enzyme, MTase-Glo SAH luminescence; measured here: NNMT inhibition; at 40 µM; stronger effect = lower value
Method in brief: as §1

[5] = biological target: Phenylethanolamine N-methyltransferase (Homo sapiens) (UniProt P11086); conditions: purified enzyme, MTase-Glo SAH luminescence; measured here: PNMT inhibition; at 40 µM; stronger effect = lower value
Method in brief: as §1
% is scaled to controls: 0 for no effect and ±100 for the full control effect.

| SMILES | activity change, negative = inhibition [1] | activity change, negative = inhibition [2] | activity change, negative = inhibition [3] | activity change, negative = inhibition [4] | activity change, negative = inhibition [5] |
| --- | --- | --- | --- | --- | --- |
| CCCSCCCN1C(=O)c2ccc(-c3ccco3)n2CC1(C)C(=O)NC1CCCC1 (stereo not given) | -0.435% | 0.044% | 3.5% | -0.278% | -2.19% |
| COC1CC/C=C(\C)C(=O)Nc2cc(O)cc(c2)CC(C)CC(OC)C(O)C(C)/C=C(\C)C1OC(N)=O (stereo not given) | 4.8% | 4.54% | 5.17% | -9.6% | 3.45% |
| Cc1oc2ccn(C)c(=O)c2c1C(=O)NCc1cc(F)ccc1F | -40.6% | -5.96% | -4.46% | -14.6% | -5.87% |
| CN1CCCN(S(=O)(=O)c2cn(C)cn2)c2ccccc21 | -7.04% | -1.93% | -10.2% | -4.74% | -8.02% |
| O=C(N[C@@H]1CCN(C(=O)CCCn2cccn2)C[C@H]1O)c1ccccn1 | -0.692% | 0.584% | -1.5% | 2.16% | 11.4% |
| COc1ccc(OC)c(CNC(=O)Cn2ccc3cc(S(=O)(=O)N4CCCCC4)ccc32)c1 | -3.75% | 0.141% | -3.52% | -14.4% | -2.1% |
| Cn1cnc(S(=O)(=O)N2c3ccccc3CC2c2noc(C3CCOCC3)n2)c1 (stereo not given) | 0.599% | 0.64% | 1.74% | -4.66% | 3.77% |
| Cc1cc2c(cc3n2CC(C)(C(=O)NC2CCCCCC2)N(c2ccc(C)c(C)c2)C3=O)o1 (stereo not given) | -2.63% | 0% | 7.08% | -1.54% | 2.69% |
| CC(C)NC(=O)NC1CC2(CCN(C(=O)Cc3ccc(O)cc3)CC2)c2ccccc21 (stereo not given) | -4.76% | -0.598% | -2.16% | -5.13% | -0.031% |
| CCC(=O)N1CCC(CC(=O)N2CCOCC2)C1 (stereo not given) | -0.311% | 1.01% | -0.217% | -0.849% | 10.8% |
| COc1cc(OC)cc(N2C(=O)c3cc(C(C)(C)C)nn3CC2(C)C(=O)NC2CCCCCC2)c1 (stereo not given) | -0.726% | 0% | 1.89% | -1.19% | -3.14% |
| COc1ccc(CN2C(=O)c3ccc(-c4ccco4)n3CC2(C)C(=O)NC2CCCCCCC2)cc1 (stereo not given) | -11.6% | 0.883% | -1.61% | -15.4% | -7.72% |
| c1ccc2nc(C3=NCCN3)ccc2c1 | 11.3% | 12.8% | 12.2% | -6.16% | -22.1% |
| Cc1noc(C)c1S(=O)(=O)N1CCCC(Cc2nncn2C(C)C)C1 (stereo not given) | 0.672% | -2.38% | 0.858% | -1.47% | -15.4% |
| CC1CCN(S(=O)(=O)c2ccc3c(ccn3CCC(=O)NCCC3=CCCCC3)c2)CC1 | -5.16% | 0% | -3.97% | -12.4% | -6.42% |
| C=CCn1c(CN2CCC3(CC(=O)NC3=O)C2)nc2ccccc21 (stereo not given) | -9.02% | -10.2% | -5.67% | -32.2% | -11.2% |
| CC(C)CCn1c(=O)c2ccc(C(=O)NC3CCCCC3)cc2n2c(=O)n(Cc3ccccc3F)nc12 | 2.72% | 1.18% | 6.49% | 2.93% | 2.19% |
| CCc1cccc(NC(=O)c2cc3n(n2)CC(C)(C(=O)NC2CCCCC2)N(C)C3=O)c1 (stereo not given) | 5.45% | 0% | 5.96% | 1.68% | 2.61% |
| CCCn1c(=O)c2ccc(C(=O)NC(C)CC)cc2n2c(=O)n(CC(=O)c3cc(C)ccc3C)nc12 (stereo not given) | 4.71% | 0.536% | 10.4% | -2.29% | 5.67% |
| CCCN1C(=O)c2cc3sccc3n2CC1(C)C(=O)NC1CCCCCCC1 (stereo not given) | -5.29% | 3.67% | -1.8% | -4.33% | -3.34% |

| SMILES | activity change, negative = inhibition [1] | activity change, negative = inhibition [2] | activity change, negative = inhibition [3] | activity change, negative = inhibition [4] | activity change, negative = inhibition [5] |
| --- | --- | --- | --- | --- | --- |
| Clc1ccc2c(c1)C1C=CCC1C(c1ccccc1Br)N2 (stereo not given) | 1.19% | 0% | 4.61% | -3.8% | 0.39% |
| Cc1ncoc1C(=O)N1CCC[C@H](n2c(=O)n(C)c3cccnc32)C1 | -5.03% | -2.15% | -2.51% | -4.7% | -5.1% |
| CC(CNC(=O)Cn1ccc2cc(S(=O)(=O)N3CCCCC3)ccc21)c1ccccc1 (stereo not given) | 1.54% | -4.76% | -8.68% | -6.75% | -8.93% |
| CC(=O)OC(CSC1CCC(=O)OC(C)CCC(=O)C1)C(=O)O (stereo not given) | 3.16% | 6.49% | 6.08% | -6.49% | 5.07% |
| CC(C)(C)c1ccc(C(O)CCCN2CCC(C(O)(c3ccccc3)c3ccccc3)CC2)cc1 (stereo not given) | 2.35% | 9.43% | 8.03% | -8.53% | -2.55% |
| CCc1ccc(NC(=O)Cn2c(=O)oc3cc(S(=O)(=O)N4CCCC4)ccc32)cc1 | -4.46% | 3.16% | -1.92% | -0.873% | -20.2% |
| Cc1ccc(S(=O)(=O)c2nnn3c2nc(NCCC(C)C)c2ccccc23)cc1 | -5.21% | 0% | -0.665% | 2.95% | -4.45% |
| Cc1cnc(C2CCOCC2)n1C1CCNCC1 | -2.98% | -2.75% | 0.378% | -2.02% | 0.024% |
| COc1cc2c(cc1O)C1(Cc3ccc4c(c3C1=O)OCO4)N(C)CC2 (stereo not given) | 1.08% | -2.15% | 3.88% | -11.3% | -2.51% |
| CN(C)CCn1cc(S(=O)(=O)c2cccc(F)c2)c2cccnc21 | -0.484% | 2.67% | 10.3% | -11.5% | 4.15% |
| C=C1CCC2C(C)(C)CC(=O)CC2(C)C1CCC(C)CCO (stereo not given) | -8.69% | -11.7% | 1.01% | -30.4% | -6.92% |
| CCCOC(c1cc2nccc(C(=O)O)c2[nH]1)c1ccccc1Cl (stereo not given) | -0.743% | -13.2% | 7.69% | -22.7% | -5.2% |
| CCC(C(=O)N1CCN(c2ccccc2)CC1)n1ccc2cc(S(=O)(=O)N3CCCCC3)ccc21 (stereo not given) | 1.84% | 0% | 1.15% | 2.08% | 1.45% |
| NCCCNCCSP(=O)(O)O | 4.9% | 15.3% | 9.42% | -6.11% | 6.58% |
| O=S(=O)(N[C@H]1CO[C@H]2[C@@H]1OC[C@@H]2n1cc(CC2CCCCC2)nn1)c1cccs1 | -4.81% | -4.94% | -1.93% | -7.59% | -9.11% |
| Cc1cc2c(F)c(Oc3ncnn4cc(OCC(C)OC(=O)C(C)N)c(C)c34)ccc2[nH]1 (stereo not given) | -5.2% | – | -20.1% | – | – |
| CN(CC1CCCCO1)C(=O)c1coc(COc2ccc3c(c2)OCO3)n1 (stereo not given) | -2.44% | -3.59% | -3.25% | -5.71% | -3.42% |
| Cc1ccc([S+](=O)([O-])N2CCCC2C(=O)N2CCC(c3nc4ccncc4[nH]3)CC2)cc1 (stereo not given) | -5.71% | -5.21% | -18.2% | -16.5% | -8.85% |
| CCN1/C(=C/C(C)=O)Sc2ccc(O)cc21 | – | 9.49% | – | -17.8% | 2.45% |
| C=C[C@H]1[C@H](O[C@@H]2O[C@H](CO)[C@@H](O)[C@H](O)[C@H]2O)OC=C(C(=O)OC)[C@H]1C/C=C(/C=O)[C@@H]1C(C(=O)OC)=CO[C@@H](O[C@@H]2O[C@H](CO)[C@@H](O)[C@H](O)[C@H]2O)[C@@H]1C=C | 0.722% | 6.14% | 9.4% | -4.98% | 1.41% |
